Values marked as one replicate rest on one cluster of the flow cell; about a third of the high ones do not repeat.
test system: ATP; assay: switch fluorescence ratio, 500 uM ATP over buffer (Cy3 cluster intensity, sum of 5 cycles each) (fold (ratio)); higher = stronger signal-on switching upon ATP binding; sequences stand for … in TCGTCGGCAGCGTCAGATGTGTATAAGAGACAGTTTTTTTTTTTTTTTTTTTTTTTTT…TC; settings: aptamer strand: ATP DNA aptamer (quencher-CACCTGGGGGAGTATTGCGGAGGAAGG + anchor), 100 nM annealed; ATP concentration: 500 uM; one replicate
Procedure, shortened: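 Per cluster, summed Cy3 intensity from the target cycles was divided by that from the buffer cycles to give the fluorescence ratio, then averaged per switch-domain sequence. Clusters outside 100-1000 RFU were excluded. The Cy3-labelled switching-strand clusters, on a modified Illumina MiSeq flow-cell, were annealed to 100 nM quencher-labelled ATP aptamer and imaged in selection buffer, then after 15 min with 500 uM ATP at 22 °C, for five cycles with NaOH stripping and re-annealing between them.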
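Also: ATP exposure 15 min at 22 °C before imaging.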

Sequence | switch fluorescence ratio
CCTATTGA | 0.963
CCTATTTTGT | 1.01
CCTCAAAAGT | 1.39
CCTCACGGTG | 3.39
CCTCAGACCG | 1.07
CCTCGACTAA | 1.81
CCTCGCTGTT | 2.04
CCTCGTCATG | 1.73
CCTCGTCGTT | 1.09
CCTCGTTGGG | 1.04
CCTCTATAAT | 3.26
CCTCTGAACA | 2.69
CCTCTTGGCG | 1.01
CCTCTTGTG | 1.01
CCTCTTTAGT | 1.03
CCTGAATCTT | 1.02
CCTGAGCACA | 1.99
CCTGAGTTCA | 0.997
CCTGATATGC | 1.44
CCTGATCCTT | 1.04
CCTGATCGGA | 1.01
CCTGATTCAT | 1.02
CCTGATTTTG | 0.997
CCTGATTTTT | 1
CCTGCACCGG | 1.07
CCTGCACTT | 1.13

Sequence | switch fluorescence ratio
CCTGCAGGTA | 1.05
CCTGCCCACG | 1.43
CCTGCGTGGC | 2.94
CCTGGAACCG | 1.86
CCTGGAGGGA | 1
CCTGGCCCGG | 1.03
CCTGGCGAG | 1.03
CCTGGGAACA | 1.02
CCTGGGATGT | 1.01
CCTGGGCCCG | 1.01
CCTGGGCTAA | 1.04
CCTGGTGCCT | 1.27
CCTGGTGGGG | 0.955
CCTGGTTAAA | 1.04
CCTGGTTCAG | 0.989
CCTGTCCGGT | 0.989
CCTGTCTGCG | 1.09
CCTGTGGGGC | 0.963
CCTGTGTCGA | 1.1
CCTGTGTGTT | 1.01
CCTGTTCTAG | 1.04
CCTGTTGCTG | 0.995
CCTTAGCCTT | 1.32
CCTTAGTGAT | 1.32
CCTTCCAACT | 1.53
CCTTCCGTAT | 2.32

Sequence | switch fluorescence ratio
CCTTCGTTCT | 1.38
CCTTCTTTAT | 0.993
CCTTGATAAA | 0.983
CCTTGATCAG | 1.02
CCTTGGTTAT | 1.08
CCTTGTACAC | 1.36
CCTTGTCCGG | 1.11
CCTTGTCCGT | 1.08
CCTTGTTGGT | 1.03
CCTTTTGCAT | 2.07
CGAAAGAGGC | 1.03
CGAAAGCCGG | 0.967
CGAAATCATA | 0.999
CGAAATCTTA | 0.992
CGAAATGCGT | 0.995
CGAACAAGCG | 1.02
CGAACAGTCC | 1.05
CGAACATTGG | 0.932
CGAACCAGCT | 1.06
CGAACCGTTC | 1.2
CGAACCTCCC | 1.98
CGAACCTGCT | 1.01
CGAACGGCCG | 1.03
CGAACTTGAG | 0.977
CGAACTTTAA | 1.01

From the supplement of paper PMC10126150
